Laboratory results as given in PubChem BioAssay (NCI).
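Five concentrations, 48 hours, 96-well plates. GI50 = concentration required for 50% inhibition of growth. TGI: concentration producing complete growth inhibition.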

Tested on: NCI-H322M lung
Experiment: inhibition of tumour cell growth, NCI panel, 48 h

Row | Structure (SMILES) | GI50 | TGI
1 | CN(C)c1ccc(/C=C/c2n(Cc3ccc4ccccc4c3)c3ccccc3[n+]2Cc2ccc3ccccc3c2)cc1 | 0.456 µM | 1.7 µM
2 | CCCSc1nc(Nc2ccc(S(N)(=O)=O)cc2)c(C#N)c(-c2cc(OC)c(OC)c(OC)c2)n1 | 22.1 µM | > 100 µM
3 | CS(=O)(=O)Nc1ccc(-c2ccc3c(c2)ncn3-c2ccc(NC(=O)Nc3ccc(Br)cc3)cc2)cc1 | 4.01 µM | > 72.3 µM
4 | CC(C)Sc1nc(NCCc2c[nH]c3ccccc23)c(C#N)c(-c2ccc(F)cc2)n1 | 14.3 µM | 29.7 µM
5 | CC1(C)CC[C@]2(C(=O)O)CC[C@]3(C)C(=CCC4[C@@]5(C)C[C@@H](O)[C@@H]6OC(c7ccccc7F)OC[C@@]6(C)C5CC[C@]43C)C2C1 (stereo not given in full) | 3.3 µM | 14.3 µM
